Read counts are not given, so values of variants with three or more changes are uncertain.

Among the data in the RNAGym collection of RNA variant scans (doi:10.1093/nar/gkz1192) are self-cleavage values, retold here.

B1: CPEB3 Ribozyme (parent)
chain: UAACAGGGGGCCACAGCAGAAGCGUUCACGUCGCAGCCCCUGUCAGAUUCUGGUGAAUCUGCGAAUUCUGCUGUAUAUCUC

In this data set the parent is B1. Nature of the data set: self-cleavage, relative activity (ratio to wild type); higher = more cleavage; in vitro, sequencing. In short, it runs like this:
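After error-prone PCR and barcoding, CPEB3 ribozyme mutant libraries were transcribed with T7 RNA polymerase at 37°C for 5 hours, then given 15 min with DNase I before an EDTA stop, and they cleaved during both steps. Reverse transcription with template switching preceded Illumina sequencing. Relative activity divides a variant's cleaved/total read fraction by the unmutated ribozyme's. At least 5 reads were required per variant, and three batches were averaged.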
On to G7A C40G A47G U51A U54C U60C U69A, for which the self-cleavage turned out to be 0.07.
Under G7U A45U A65G stands 0.09.
Under G7A G55U U67C U69A U72C stands 0.16; under G7U U60C U72A U80A, 0.05; under G7A G52A U80C, 0.1.
Under G7A A28G U69C stands 0.05.
Turning to G7U G22C A28U U74A, the self-cleavage was found to be 0.05.
Under G7A A45C U58C U78C stands 0.03; under G7A U25C U26A A45U A75G, 0.03; under G7C U31C A56G A64C U69C, 0.07.
Under G7A U25C A57G C62A A65G U72A stands 0.08; under G7A U26C U51C U66A, 0.07; under G7A G19U U54C A75G, 0.03.
Under G7U C12A A28G A56G A57G C62U A64G stands 0.06; under G7A A15U U31C U51A, 0.05.
Turning to G7C U31A U43C U49C U54C A75G, the self-cleavage turned out to be 0.05.
For G7A U25C A57G U72A the value was 0.05; for G7U U41C A56G U60A U66C U67C U80A, 0.04.
For G7U A13U A15C A20U U26C U74A A75G the value was 0.05; for G7C A18G U25C, 0.41.
Under G7A A18G A21U C38A U43C U51A stands 0.04.
In the case of G7A A15G A35C, the self-cleavage was found to be 0.36.
For G7U U25C U31C the value was 0.37; for G7A C11U A28U G52U A57G U76C, 0.03; for G7A G9A G42A U54C A65U U66C, 0.08.
In the case of G7A A15G A28G, the self-cleavage is 0.34.
For G7A U25C A28U U60C U67C A77U the value was 0.04; for G7C U26C A28U U54C, 0.21; for G7A U48C U60A A75C, 0.07.
On to G7A G9A A15U G16A A18U U51C U72C, for which the self-cleavage is 0.06.
For G7A C40U U49A the value was 0.21; for G7U A45G A56G U60G, 0.15; for G7U A28G G30A A35G U51A U66C U72C, 0.05.
For G7A U41C G70A, the self-cleavage amounted to 0.24.
Under G7U A13U G22C U41A G73U stands 0.04.
Under G7A A21G C32U C44G A45U U78C stands 0.05; under G7C A13G A18U A35U A57U, 0.24; under G7A A57G U80C, 0.07.
For G7U U31C A56G U74C the value was 0.1; for G7U U25C U26C U49C U72A, 0.15; for G7A A15G A21G U41A A56G, 0.03.
As for G7C U41A U69C, the self-cleavage turned out to be 0.04.
For G7U A13C A35G A47G the value was 0.11; for G7A A18G C29U A75G, 0.06; for G7A A13U U60G U74A, 0.06.
As for G7U U43C A57U G73C, the self-cleavage amounted to 0.05.
For G7A A28G G33A A35G A64G the value was 0.1.
As to G7A A28G U31C A35U A57G, the self-cleavage was 0.14.
In the case of G8A A13G U41C U49A U54C U66A U72C, the self-cleavage was 0.05.
Under G7U U49C U69C stands 0.11; under G7U A18G G19U U54G G55U A56G U74C, 0.15.
Turning to G7A A13G A15G U26C U78C U80C, the self-cleavage is 0.25.
For G7A C27U A64G U80C the value was 0.07; for G7A A13G U25A U67A, 0.13; for G7U A15U A28G U43C U48C U66A U69A, 0.04.
Turning to G7U C12A A21G A77U, the self-cleavage stood at 0.03.
Under G7A U25C U67A U80C stands 0.05; under G7U A13C A21G U41C A56G U80C, 0.06; under G7C A57G U66A, 0.14.
For G7A A15U U41A U51A the value was 0.18; for G7C C12U A20G G61C U72C, 0.03; for G7C C11A U26C U69A, 0.05.
Under G7U U60A A77G stands 0.1; under G7U U26G A56G U60G U80A, 0.06; under G7U A13U A75U U80C, 0.19.
As for G7U G10C A21G U60C A64G U80C, the self-cleavage amounted to 0.07.
Take G7U U26A U41A U48C A57G A75U: the self-cleavage amounted to 0.1.
Under G7U C12U A13G A35U U78C stands 0.05; under G7A U66C U72C, 0.06.
Under G7A A15C U51C A56U U60A U66G stands 0.05; under G7A U58C U76C, 0.06.
With G7A U26C A45G U72C, the self-cleavage was 0.05.
For G7U A18G U26A the value was 0.07; for G7C C14U G33C C38A U72A, 0.04.
Regarding G7C U72C U76A, the self-cleavage stood at 0.03.
Under G8A A13G U26A A65G stands 0.09; under G7U C40U U69A, 0.15; under G7U C40U U69C, 0.12.
For G7U A20U C62U the value was 0.04; for G7A U25C U51A U58C, 0.12.
For G7U C14U U31A U74C U76A the value was 0.26; for G7A U43C A45U U69A U80A, 0.05; for G7A A15G A28U U41A, 0.07.
On to G7A G9A G42A A45G U54C A65U, for which the self-cleavage came to 0.1.
